# Laboratory results reported in the supplement of paper PMC11417369.
# This is one part of the list.
# Test system: PfSIP2 AP2 domain 1 (GST-tagged)
# Test: gcPBM binding intensity (ln(normalized median fluorescence intensity)); higher = stronger DNA binding
# How it was run: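 The binding buffer was 1× PBS containing 1% milk, 0.2 mg/ml BSA, 0.5% salmon testes DNA and 0.03% Triton X-100. In it, GST-tagged P. falciparum DNA-binding domains expressed in E. coli were applied for 1 h to an Agilent 4 × 180k array of primer-extended double-stranded 36-bp intergenic genomic probes plus negative controls. Binding intensity, read with Alexa488 anti-GST antibody and a 488 nm scan, is the highest Masliner-normalised natural-log median intensity across replicate spots of either probe orientation.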
row,Sequence,gcPBM binding intensity (ln)
1,AAACTTATAAAAAGTAGTACCATAAAATAATACATA [XGTACX_site6523],6.94
2,TTTTACAAATATTACTGTACACATTTTCATATAATT [XGTACX_site17],7.01
3,AAATAATACCAAATGTGTACTTATTTCACTAATAGA [XGTACX_site7571],6.92
4,ATATATACTTATATTTGTACACAAAGGTATCTCTAG [XGTACX_site3805],6.88
5,GGAATAATAAAATTATGTACATAAGAATCATATACT [XGTACX_site6810],6.98
6,AAAAAAAAAAATCGCTGTACTTCTAAAGGTGTGTTA [XGTACX_site843],6.88
7,CAAACAAACGGACACACACACACACCCAAAAATGAT [CACACA_site5363],7.2
8,AGTTTTATATAAGCTTGTACTTAATATTATTAAGTA [XGTACX_site5919],6.99
9,TTTGATAAATTATACACACACAATATATATAAAATA [CACACA_site2023],7.11
10,ACGGACTTAAAATACACACACACCAAAAAAAAAAAA [CACACA_site7304],7.19
11,AATAATATATAATAATGTACAAAAAAAAAAAAAAAA [XGTACX_site4158],6.98
12,AAGCTTTGGTGTTATGCATGCAATTAAACTATTAGT [TGCATGCA_site277],7.16
13,TTTTATTTTTTAGTAGTACACACTTTTTGTACCTTT [CACACA_site599],7.04
14,TATTTTAATTAATATACACACGCTTATATATATATA [CACACA_site7909],9.02
15,TTTCTTTTTTTTTTTTGTACATATTTTAATTATTTT [XGTACX_site8676],7.24
16,TATTATATATATAACTGTACGTTTATAATATAAAAA [XGTACX_site3778],7.45
17,TACAAACTATGATGCACACATATATATCTGTATCCA [CACACA_site4809],7.24
18,AGTGTTAAAAATGAGGGTACATATAAAATACAGTTC [XGTACX_site457],7.05
19,TAATCATTTTAGCTTACACACAAAATTTGGTTATAA [CACACA_site5604],6.85
20,ACAGGATTGGTTCAAACACACATATTATATGACTAT [CACACA_site4536],6.81
21,CATATATAAATATGTATGCACTTTAACAAAATGTAT,7.74
22,ATTCCACCTTAAAACTGTACTTTCTCAATCTTTTAT [XGTACX_site796],7.22

row,Sequence,gcPBM binding intensity (ln)
1,ATATTTATTTATATGTGTACTTATGTTTATATAAAA [XGTACX_site4250],7.27
2,ATTATGTTATATACACGTACGTGTGCTTTATAATTA [XGTACX_site2728],7.36
3,ATAAAGTAGATATTTTGTACGCAGGTTGTATATATT [XGTACX_site1464],7.12
4,TACTTTACTAATATATATAGGAGAGTATACATGAAA [CACACA_negctrl_site63],7.09
5,GGAATTATAATAAATGGTACACATAAAAAAAAAAAA [XGTACX_site8343],7.05
6,TAATAAATAGGACACACACACATATATATATATTAT [CACACA_site4891],7.33
7,TTTTTTAAAAGAAAATAAAAAATAAGCATAATATGA [CACACA_negctrl_site1574],7.06
8,AAGGGTTATTTGATATGTACTTATATATATATATAA [XGTACX_site1659],7.2
9,AAGGTGGAAACAATTACACACACACTAATAAAAAAA [CACACA_site9051],6.94
10,AAGTACAAATTTAATAAAAATGAAACAAATATGTAT [TGCATGCA_negctrl_site94],7.06
11,ATGGAATTTTTAGAATATGGATAATGTTACTTAAGT [CACACA_negctrl_site494],7
12,AAAAACCATGGGCACACACACATAATATATAATATA [CACACA_site1425],7.06
13,GTTATATATATATATATATATATATATATTTTTTTT [GTGCAC_negctrl_site597],7.92
14,TATATCGTTAATTATACACACATAAAATTAAACTTT [CACACA_site1274],7.23
15,AAATTAAAAAAGAATATACACACCAAAACTGTTTGT [CACACA_site958],6.73
16,TAAAAAAAGGAAAACATACAATTCTATTTTTCAATA [CACACA_negctrl_site474],6.5
17,ACCATACATACATACACACACACACGCATATTTATA [CACACA_site7386],7.69
18,TAATTTTAAATATCTTCACACATTATATTTTTATAT [CACACA_site5411],6.89
19,TATATAAATAGATACACACATACATACATACATACA [CACACA_site260],8.09
20,TATAATAATACTTATTGTACGATTAGCTTAATTCGT [XGTACX_site15],6.71
21,TTGATATTTTTTTTATGTACACATGTTCATATTTTT [XGTACX_site8095],7.06
22,TCATCTTTTATATGTTGTACGTATTTTCATTTATAT [XGTACX_site4855],7.22

row,Sequence,gcPBM binding intensity (ln)
1,ATTTAAAAAAGAAAGGTGCATTTCAATAATGTAAAA [GTGCAC_site9585],11
2,AAGTAGTGTTAATACTGTACTTATATTTTTTATTAT [XGTACX_site8264],6.92
3,TCACATATTATCTTTACACACTATAAATAAGTTTTA [CACACA_site7335],7.13
4,TTTTTTTCTTTTTGAGGTACGCATTATTTTATTTGT [XGTACX_site6996],7.07
5,ATAATTTGATGGTTAACACACATATAGATTATAGAT [CACACA_site7200],6.94
6,TGTTATATTTCAAATTGTACTAATCTAATTAATAAA [XGTACX_site604],6.89
7,TTATTATATATATCTCGTACGTGTATACGCCTACCA [XGTACX_site8375],6.69
8,AAAAAAATGAAACACACACACACATATATATATATA [CACACA_site1043],9.36
9,AAACAATTACACATATGTATGTATATATATATATAT [TGCATGCA_negctrl_site536],9.25
10,ACAAAGTTTATAGAACGTACATACTTACACATATTT [XGTACX_site556],6.71
11,AAAGATTGCGATGGTTGTACTTTTCTATATTTTTTT [XGTACX_site3492],6.8
12,CTAAAATACGAACACACACACACATATAAATAAATA [CACACA_site7872],7.13
13,TATACTTCTTATTAAATGAGTAGTATATATTATATA [TGCATGCA_negctrl_site299],6.95
14,CTATTTCATAAACACACACACACAAACAAACATATA [CACACA_site8234],7.31
15,TTAAAAAATTATTGTAGTACATAGGAAATGAAAAAA [XGTACX_site155],7.42
16,TAAATTAAATATTATAAACACACATATATATTATTT [CACACA_site8189],6.82
17,ATATAAATAAATACAACACACATGTCATATCTAAAT [CACACA_site7533],6.97
18,AAAAAAAAAAAATGAGCACACATAAATAAAAACAAA [CACACA_site8447],7.03
19,TATATACATAAAATTTGTACATATATATATATATAT [XGTACX_site3214],9
20,ATATTATTCTTATATTCACACAGTTTATATTTCCGT [CACACA_site5653],7.01
21,AAATTACATACACGCGCACACACAAAAAAAAAAAAA [CACACA_site1335],7.38
22,TGGCAAAATAGGCACACACACATATACATATATATT [CACACA_site1059],7.1

row,Sequence,gcPBM binding intensity (ln)
1,TATATAATTAAAATAACACACATATATAAAAATATA [CACACA_site2990],6.94
2,ATATTATAGTATATAACACACATTTTTCATAACACT [CACACA_site6331],7.01
3,GTATATATATTTCTTTAATAATTAAATTATAAATAT [CACACA_negctrl_site640],7.01
4,TATTATATCTTATATGTATATTCCCACAAATTATAT [GTGCAC_negctrl_site362],6.94
5,AATATATAAACACGTACACACACATATATGTATATA [CACACA_site9168],7.39
6,AATTTAAATATTTGTTGTACGTATTTATATATTCTT [XGTACX_site3623],6.94
7,CATGCCGTTAAATTATGTACTTATTATTTTAATATG [XGTACX_site4209],7.03
8,ATAATATATAAACACACACACATATATAAATACATT [CACACA_site4466],7.19
9,ATTTTTGTTATTACATGTACCCATAATTATTATTAA [XGTACX_site3558],7.51
10,ACCGTGGGAGGACACACACACACACCCACATATATA [CACACA_site4339],7.12
11,TATTTATATTCCTTTACACACTCCATCTTATATCCA [CACACA_site3604],7.03
12,AACAATTATTTGTCGACACACGTATATGTTATTTAG [CACACA_site5046],6.87
13,ACAAAAAAATGAAAAGAAAAAGATATACCCCAATAT [CACACA_negctrl_site509],7.14
14,AAGAGAAATATATATTGTACAATAATTTTATTTGGT [XGTACX_site7642],6.95
15,ATATCCATAATAAAAACATGCAACAGAAAAAAAAAA [TGCATGCA_site497],7.14
16,TATATATTAATATTTACACACATGCGCACCCATAAA [CACACA_site2410],12.1
17,TTCCAAAAAATTATTACACACATATGAGCACATATA [CACACA_site4543],6.94
18,TATTAATTAAAAAAATGTACATAATTATAAATTTTT [XGTACX_site7994],6.82
19,TACGGTTGTTTATTTTGTACGTAAAAAATATATTAT [XGTACX_site8393],7.5
20,TAATATACATATATATGTACATATATATATATATAT [XGTACX_site2684],9.16
21,ACATAATATACTATTGTGCACATATATATATATATA [GTGCAC_site9761],9.6
22,GTTAATTTAATTATATGTACGAAAAAATACGTTATA [XGTACX_site1306],7.18
